# Measured values reported in PubChem BioAssay AID1461 (National Center for Advancing Translational Sciences (NCATS), 2008).
# Screen size: about 220,000 compounds; about 2,300 (1%) were called active. The inconclusive results got no clear call from the source; some entries with a clear call stand among them for comparison. The call rests on the fitted dose curve; in most records, active means well fitted inhibition curve with a large enough effect; inconclusive means small, poorly fitted or top-dose-only effect, or effect the other way; inactive means no such curve, though single readings can be large or run the other way. Potencies of inconclusive entries are left out as doubtful fits.
# Molecular target: Neuropeptide S receptor (Homo sapiens) (UniProt Q6W5P4)
# Test: qHTS Assay for Antagonists of the Neuropeptide S Receptor: cAMP Signal Transduction; further: nearly all actives have a fitted effect of over 50% in size
# Settings: CHO-NPSR cells, cAMP TR-FRET, antagonist mode; series mostly up to 38.3 µM
# Potency means the concentration at half of the fitted maximal effect; tags describe the fitted curve by direction and shape.
# UniProt Q6W5P4, sequence (Q6W5P4 whole entry, looked up): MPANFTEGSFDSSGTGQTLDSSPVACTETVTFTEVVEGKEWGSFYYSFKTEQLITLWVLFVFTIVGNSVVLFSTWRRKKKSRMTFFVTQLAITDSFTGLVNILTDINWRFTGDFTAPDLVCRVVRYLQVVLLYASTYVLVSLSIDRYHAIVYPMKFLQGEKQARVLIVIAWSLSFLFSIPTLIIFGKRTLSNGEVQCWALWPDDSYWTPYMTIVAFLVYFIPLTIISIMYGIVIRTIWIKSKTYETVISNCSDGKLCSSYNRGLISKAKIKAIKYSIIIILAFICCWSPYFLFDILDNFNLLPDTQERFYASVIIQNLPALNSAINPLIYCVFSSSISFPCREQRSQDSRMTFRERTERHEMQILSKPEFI
row,Structure (SMILES),Potency
1,Cc1noc(/C=C/N(C)C)c1S(=O)(=O)N1CCCC(C(=O)NC2CCCCC2C)C1 (stereo unspecified),"inconclusive [inhibitor, partial curve, poor fit]"
2,O=C(Nc1cccc2nsnc12)c1ccc(-c2ccc(Br)cc2)o1,"inconclusive [inhibitor, single point]"
3,CCCCC(=O)NNC(=S)NC(=O)c1ccc([N+](=O)[O-])cc1,inactive
4,CCOC(=O)c1c(NC(=S)Nc2ccc(Cl)cc2)sc(C)c1C,inactive
5,Cc1cc(NC(=O)CSc2nc3ccc(Cl)cc3[nH]2)no1,"inconclusive [activator, partial curve]"
6,CCOc1ccc(C(=O)Nc2nc(C)c(C(=O)OC)s2)cc1,"inconclusive [activator, single point]"
7,COc1ccc(S(=O)(=O)Nc2cc3c4c(oc3c3ccccc23)CC(C)(C)CC4=O)cc1,"inconclusive [inhibitor, partial curve]"
8,Cc1ccc(/C=C2\CCCC3=C2NC(=S)NC3c2ccc(C)cc2)cc1 (stereo unspecified),inactive
9,CC(=O)Nc1ccc2sc(C)nc2c1,inactive
10,CC(Sc1cnc2ccccc2n1)C(=O)O (stereo unspecified),"inconclusive [activator, partial curve]"
11,C=CCc1cccc2cc(C(=O)NC3=C(C#N)CCC3)c(=O)oc12,inactive
12,COc1cc(-c2nnc(-c3cc(OC)c(OC)c(OC)c3)o2)cc(OC)c1OC,inactive
13,Cc1ccc(S(=O)(=O)ON2C(=O)c3cccc4cccc(c34)C2=O)cc1,inactive
14,Cc1cc2cc(CN(Cc3ccco3)C(=O)NCc3ccccc3)c(=O)[nH]c2cc1C,"inconclusive [inhibitor, single point]"
15,CCNc1nc(NC(C)C)nc(N(n2cnnc2)S(=O)(=O)c2ccc(C)cc2)n1,inactive
16,CC(=O)Nc1ccc(NC(=O)C(C)OC(=O)c2ccccc2C(=O)c2ccc(Cl)c([N+](=O)[O-])c2)cc1 (stereo unspecified),"inconclusive [inhibitor, single point]"
17,O=C(c1cccc(Cl)c1)N1CCN(c2ccccn2)CC1,inactive
18,CCCC(=O)OC1CC(C)N(C(=O)c2ccccc2)c2ccc(C)cc21 (stereo unspecified),"inconclusive [inhibitor, partial curve]"
19,CCC(C)(C)NC(=O)c1ccccc1Oc1ccccc1,"inconclusive [inhibitor, single point]"
20,Cc1noc(C)c1CSc1nc2sc3c(c2c(=O)n1C)CCCC3,"inconclusive [inhibitor, single point]"
21,C#CCOC(=O)c1ccccc1C(=O)n1nnc2ccccc21,"inconclusive [inhibitor, single point]"
22,COC(=O)c1ccc2c(=O)n(CCCCCC(=O)N3CCN(c4ccc(F)cc4)CC3)c(=O)[nH]c2c1,"inconclusive [inhibitor, single point]"
23,CCn1c(COc2cccc3ccccc23)nnc1SCC(=O)OC1CCCCC1,"inconclusive [inhibitor, single point]"

row,Structure (SMILES),Potency
1,CCCCC(=O)NNC(=S)NC(=O)CCC,"inconclusive [activator, single point]"
2,O=C(Nc1ccn(Cc2ccc(F)cc2)n1)c1ccncc1,"inconclusive [inhibitor, single point]"
3,COc1ccc(-c2nnc(SCC(=O)N(Cc3ccccc3)C(C)(C)C)o2)cc1OC,"inconclusive [inhibitor, single point]"
4,Cc1cccc2c(=O)c(C(=O)N3CCCCCC3)c[nH]c12,"inconclusive [activator, partial curve]"
5,O=C(NCc1nc2ccccc2[nH]1)C1=C[C@@H](c2ccc(Br)cc2)C[C@@H](OCCCCO)O1,"inconclusive [activator, single point]"
6,Cc1ccc(C(=O)/C=C/C(=O)O)cc1,"inconclusive [inhibitor, single point]"
7,Cn1c2c(c(=O)n(C)c1=O)C(CC(=O)Nc1ccccc1)C(=O)N2 (stereo unspecified),"inconclusive [inhibitor, partial curve]"
8,Cc1ccc(Cn2nc(C)c(NC(=O)CCCn3nc(C)c([N+](=O)[O-])c3C)c2C)cc1,inactive
9,CCOC(=O)/C(=N/Nc1ccc(Cl)cc1)Sc1nnnn1-c1ccc(C)cc1,inactive
10,COc1ccc2c(c1)Cc1sc(NC(=O)c3ccco3)nc1-2,inactive
11,Cc1ccccc1OCC(=O)NCCN(C)C,inactive
12,CCOc1cc(N2CCOCC2)c(OCC)cc1NC(=O)Cc1cccc2ccccc12,"inconclusive [inhibitor, partial curve]"
13,COCc1c(C(=O)N/N=C(/C)c2ccccc2)nnn1-c1nonc1N,inactive
14,O=C1N/C(=N\N=C\c2cccs2)SC1Cc1ccc(Cl)cc1 (stereo unspecified),"inconclusive [inhibitor, single point]"
15,COc1ccc(C(=O)Nc2ccc(Cl)cc2C(=O)NCc2ccco2)cc1,"inconclusive [activator, single point]"
16,CCOC(=O)C1(Cc2cccc(OC)c2)CCN(Cc2cccc(OCC)c2O)CC1,"inconclusive [activator, single point]"
17,O=C(CN1CCCN(S(=O)(=O)c2ccc(Br)cc2)CC1)Nc1ccc2c(c1)OCO2,inactive
18,Cc1ccc(NC(=S)NCc2ccccc2)cc1S(=O)(=O)N1CCCCC1,inactive
19,CCOc1ccc2nc(SC3CC(=O)N(c4ccc(C)cc4)C3=O)sc2c1 (stereo unspecified),"inconclusive [inhibitor, single point]"
20,COC(=O)c1c(-c2ccc(Br)cc2)csc1NC(=O)Cc1ccc(OC)c(OC)c1,"inconclusive [inhibitor, single point]"
21,O=C(NCC1CCCO1)c1sc(=S)n2c1[nH]c(=O)c1ccc(C(=O)N3CCCCC3)cc12 (stereo unspecified),"inconclusive [inhibitor, partial curve]"
22,COc1ccc(S(=O)(=O)N(NC2=NS(=O)(=O)c3ccccc32)C(=O)C(C)C)cc1,inactive
23,O=C(CSc1nnc(-c2ccncc2)n1Cc1ccco1)OC1CCCCC1,inactive
